From publication PMC4336329 (PLoS ONE, 2015)
Out of some 310,000 compounds screened, about 2,200 (0.71%) showed an effect of 50% or more. The effect is printed as a negative number. The list shows a part of the results.

molecular target: human ether-à-go-go-related gene (hERG) potassium channel (human, UniProt Q12809); assay: primary screen, population patch clamp on CHO cells stably expressing hERG
Sequence (Q12809 whole entry, looked up): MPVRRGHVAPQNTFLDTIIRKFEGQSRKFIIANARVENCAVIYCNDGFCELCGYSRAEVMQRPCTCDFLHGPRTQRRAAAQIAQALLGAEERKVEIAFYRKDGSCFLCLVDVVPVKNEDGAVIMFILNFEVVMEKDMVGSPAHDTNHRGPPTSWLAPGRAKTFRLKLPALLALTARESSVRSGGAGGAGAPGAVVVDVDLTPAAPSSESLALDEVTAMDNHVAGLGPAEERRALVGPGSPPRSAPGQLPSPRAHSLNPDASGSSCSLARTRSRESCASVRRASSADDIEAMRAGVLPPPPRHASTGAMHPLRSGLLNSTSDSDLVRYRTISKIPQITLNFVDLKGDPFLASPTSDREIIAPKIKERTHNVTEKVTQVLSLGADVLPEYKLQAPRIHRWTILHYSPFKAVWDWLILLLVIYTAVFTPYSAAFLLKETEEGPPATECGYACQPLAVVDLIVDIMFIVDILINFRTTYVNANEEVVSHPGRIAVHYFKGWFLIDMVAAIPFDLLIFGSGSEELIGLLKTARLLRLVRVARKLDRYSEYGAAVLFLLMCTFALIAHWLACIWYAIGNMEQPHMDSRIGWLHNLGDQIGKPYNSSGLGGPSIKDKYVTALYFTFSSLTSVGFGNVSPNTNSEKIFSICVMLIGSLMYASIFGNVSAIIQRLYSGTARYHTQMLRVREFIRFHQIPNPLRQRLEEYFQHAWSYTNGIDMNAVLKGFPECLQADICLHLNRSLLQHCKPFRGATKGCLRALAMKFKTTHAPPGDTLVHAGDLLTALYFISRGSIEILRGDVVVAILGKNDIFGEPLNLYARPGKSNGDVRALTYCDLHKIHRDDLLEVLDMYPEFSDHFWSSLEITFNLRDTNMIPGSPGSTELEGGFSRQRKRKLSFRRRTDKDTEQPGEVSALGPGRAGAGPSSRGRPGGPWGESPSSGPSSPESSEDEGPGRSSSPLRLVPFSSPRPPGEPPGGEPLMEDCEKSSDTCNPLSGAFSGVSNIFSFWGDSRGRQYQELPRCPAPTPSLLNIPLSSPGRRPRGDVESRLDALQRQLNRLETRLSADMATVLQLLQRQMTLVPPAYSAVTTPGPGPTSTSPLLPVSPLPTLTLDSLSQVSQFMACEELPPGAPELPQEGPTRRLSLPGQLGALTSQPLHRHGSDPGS

Compound | hERG current change (%, negative = inhibition) at 1uM [%]
CCn1nc(C(=O)OC(C(=O)c2c[nH]c3ccccc23)c2ccccc2)c2ccccc2c1=O (centres unmarked) | 2.31
O=C(Nc1nnc(SCc2c(Cl)cccc2Cl)s1)C1CCCO1 (centres unmarked) | -0.221
Br.N=C(N)SCc1nc2ccccc2c(=O)n1-c1ccccc1 | 8.84
O=C(Cn1nnc2ccccc2c1=O)NCCc1ccc(F)cc1 | 9.54
CCOC(=O)c1cnn2cc(-c3[nH]ncc3[N+](=O)[O-])cnc12 | 5.82
COc1ccc(-n2c(C)c(C(=O)O)c3cc(OC)c4ccccc4c32)cc1 | 8.49
Cc1cc(C)n(-c2ccc(Cl)c(C(=O)Nc3ccc(-c4nnc5n4CCCCC5)cc3)n2)n1 | 0.593
O=C1COc2ccc(S(=O)(=O)N3CCN(c4cccc(Cl)c4)CC3)cc2N1 | 9.72
N/C(=N\OC(=O)c1ccccc1Cl)c1ccccc1 | -12.6
O=c1cnnc(SCc2ccc([N+](=O)[O-])cc2)[nH]1 | -0.281
O=C(O)CC(c1cccc2ccccc12)n1cccc1 (centres unmarked) | 10.7
CCOC(=O)c1c(NC(=O)C2C3C=CC(C3)C2C(=O)O)sc2c1CC(C)CC2 (centres unmarked) | 17.4
N#CC1=C(N)NC(SCc2ccccc2)=C(C#N)C12CCCC2 | 0.374
CC(C)C(=O)Nc1sc2c(c1C(N)=O)CCN(Cc1ccccc1)C2.Cl | -40.9
COCCCNC(=O)Cn1c(=O)n(Cc2ccccc2Cl)c(=O)c2cc(OC)c(OC)cc21 | 8.28
CN(C)/C=C/C(=O)/C=C/c1cn(-c2ncc(C(F)(F)F)cc2Cl)c2ccccc12 | 10.8
COc1ccc(-c2nnn(CC(=O)N(CCCO)C(C(=O)NC3CCCC3)c3ccncc3)n2)cc1 (centres unmarked) | 20
COc1ccc(CNC(=O)COC(=O)c2cncc(Br)c2)cc1 | -0.142
Cc1ccc2nc(SCc3nnc(-c4ccccc4)o3)[nH]c2c1 | 3.72
CCOC(=O)c1sc(NC(=O)c2cccc(S(=O)(=O)N3CCc4ccccc43)c2)c(C#N)c1C | 3.28
Cc1nn(Cc2c(Cl)cccc2Cl)c(C)c1NC(=O)c1cnn2c(C(F)F)cc(-c3ccccc3)nc12 | 11

Compound | hERG current change (%, negative = inhibition) at 1uM [%]
COc1cccc(CN(C(=O)COc2ccccc2[N+](=O)[O-])C2CCS(=O)(=O)C2)c1 (centres unmarked) | -3.69
COc1ccc(/C(O)=C2\C(=O)C(=O)N(CCN(C)C)C2c2cccc(OC)c2OC)cc1Cl (centres unmarked) | 9.03
Cc1nc2ccccc2cc1C(=O)N/N=C/c1cccc([N+](=O)[O-])c1 | 4.73
CC1CCC(CN2CCN=C2N(C)C)CC1 (centres unmarked) | 0.857
C/C(=N\NC(=O)C1CCCC1)c1ccc(Cl)cc1Cl | 14.1
O=C(CCCC(=O)c1ccccc1)NCCc1ccccc1 | 12.3
O=C1c2ccccc2C(=O)N1CC(=O)N1c2ccccc2CCc2ccccc21 | 12.1
COc1ccccc1OCC(=O)Nc1cccc(-c2nc3ccccc3o2)c1 | 1.28
NC(=O)/C(=C\c1ccccc1)NC(=O)/C=C/c1ccccc1 | 8.98
CC(=O)Nc1ccc2nc(NC(=O)c3ccc([N+](=O)[O-])o3)sc2c1 | 15.6
Cc1c(NC(=O)/C(=C\c2ccccc2)NC(=O)c2ccccc2)c(=O)n(-c2ccccc2)n1C | 14.9
CC(=O)NC(Cc1ccc(O)cc1)C(=O)NN (centres unmarked) | 7.47
COc1cc(OC)c(CN2CCN(c3ccc(F)cc3)CC2)cc1Br | -43.3
COc1ccc(Nc2ccc(C(=O)O)cc2[N+](=O)[O-])cc1 | 11.9
Cc1cc(C)nc(SCC(=O)Nc2ccc(S(=O)(=O)Nc3cc(C)on3)cc2)n1 | 18.9
COC(=O)c1ccc2nc(C3CCCCC3)c3c(c2c1)CCC3 | 12.7
CC(=O)NC(CCS(C)(=O)=O)C(=O)Nc1ccc(Cl)c(Cl)c1 (centres unmarked) | 3.56
O=C(COC(=O)Cc1ccccc1[N+](=O)[O-])NNC(=O)c1ccc([N+](=O)[O-])cc1 | 10.8
CCOC(=O)CN1C(=O)N[C@@H](c2cccc(C(F)(F)F)c2)[C@H](C(C)=O)[C@H]1C | 10.9
Cc1ccc(SCC(=O)Nc2ccc(C(=O)Nc3ccc(O)cc3)cc2)cc1 | 12.6
O=C(O)Cn1nnc(-c2ccc(OCc3ccccc3)cc2)n1 | 16.8

Compound | hERG current change (%, negative = inhibition) at 1uM [%]
CCc1ccc(N2CC(C(=O)NNC(=O)c3ccc(F)cc3)CC2=O)cc1 (centres unmarked) | -14.2
Cc1ccnn1-c1ccc(C(=O)N2CCCN(S(=O)(=O)c3ccc(F)cc3)CC2)cc1 | -32.6
Cc1ccc(-c2c(C#N)c(N)n(-c3ccccc3)c(=O)c2C#N)cc1 | 16.6
CCOc1ccc(C2C(C#N)=C(N)N3C(=C2C#N)Sc2ccccc23)cc1 (centres unmarked) | 12.8
Brc1ccc(CSc2nnc(Cc3c[nH]c4ccccc34)o2)cc1 | 1.95
COc1ccc2[nH]c(C(=O)N3CCN(Cc4ccccc4)CC3)cc2c1OC | 7.58
FC(F)(F)c1ccccc1N1CC1c1ccncc1 (centres unmarked) | 5.53
CCOc1ccc(NC(=O)CN(C)C(=O)c2ccc(C)c(S(=O)(=O)N3CCCCC3)c2)cc1OCC | 12
COc1ccc(OC)c(CNC(=O)C2CCCN(S(=O)(=O)N3CCC(C)CC3)C2)c1 (centres unmarked) | 8.76
Cc1ccc(C)c(NC(=O)CSc2nc3c(oc4ccccc43)c(=O)n2-c2ccccc2)c1 | 16.2
O=C(Cc1cccs1)NCc1cccs1 | -9.86
COc1ccc(CNS(=O)(=O)c2ccc3c(c2)CCN3C(=O)C2CCC2)cc1 | 13.7
O=C(CN(c1ccccn1)S(=O)(=O)c1ccccc1)N/N=C/c1cccc([N+](=O)[O-])c1 | 9.13
CC1(c2ccc([N+](=O)[O-])cc2)Nc2ccccc2S1 (centres unmarked) | 10.9
O=C(COC(=O)Cc1c[nH]c2ccccc12)Nc1c(Cl)cccc1C(F)(F)F | 4.18
CCOc1cc(S(=O)(=O)N2CCN(C(=O)c3ccco3)CC2)ccc1F | -4.55
CCOc1cc(C(=O)NCc2ccc3c(c2)OCO3)cc(OCC)c1OCC | 13.8
N#Cc1ccc(NC(=O)C2CC(c3ccc(F)cc3)=NO2)cc1 (centres unmarked) | -13.5
CCN1CCN(C2=C(NS(=O)(=O)c3ccc(NC(C)=O)cc3)C(=O)c3ccccc3C2=O)CC1 | 18.3
O=C(/C=C(O)/C=C/c1ccc(O)cc1)/C=C/c1ccc(O)cc1 | 12.4
Cc1cc(C)nc(N/N=C/c2ccccc2OCc2ccc(Cl)cc2)n1 | 4.85

Compound | hERG current change (%, negative = inhibition) at 1uM [%]
Cc1cccc(NS(=O)(=O)c2cc(OCC(N)=O)c(C)cc2Cl)c1 | 0.155
Cc1cc(C)c(C(=O)N2CCCC(Nc3ccc(C)c(C)c3)C2)o1 (centres unmarked) | 53
COc1ccc(N2CCN(C(c3cccs3)C(C)NC(=O)C(=O)N3CCCC3)CC2)cc1 (centres unmarked) | -4.23
CCN(/N=C/c1ccccc1)c1cc(=O)n(C)c(=O)[nH]1 | 14
C/C(CC(=O)NCc1ccco1)=N\NC(=O)COc1ccc(Cl)cc1Cl | -16.4
COc1ccc(-c2cc([C@H]3[C@@H]4C=CCC[C@@]4(C)C(=O)N3Cc3ccccc3)ccc2F)cc1 | 9.61
C[C@@H]1NC(=O)c2cc([N+](=O)[O-])cc(I)c2OCC[C@@H](C(N)=O)NC(=O)[C@H](CCCCN)NC1=O | 12.8
O=C(COC(=O)c1cnc(Cl)c(Cl)c1)NCCC1=CCCCC1 | 12.5
Cc1cc(C)cc(NC(=O)Nc2ccc(N3CCCCC3)cc2)c1 | 12.9
COCCNc1c([N+](=O)[O-])c(=O)n(-c2ccccc2)c2ccccc12 | -7.76
O=C(CSc1nc2ccc(NC(=O)C3CCCCC3)cc2s1)NCC1CCCO1 (centres unmarked) | 5.19
CC(OC(=O)C1CSC2(C)CCC(=O)N12)C(=O)Nc1ccc(F)cc1 (centres unmarked) | 12.9
CCCCc1ccc(NC(=O)Nc2c(C)n(C)n(-c3ccccc3)c2=O)cc1 | -1.3
O=C(NC12CC3CC(CC(C3)C1)C2)C1CCCN1C(=O)NC1CCCCC1 (centres unmarked) | 22.9
Cc1cc(NC(=O)C(C)SCC(=O)NCc2ccc(F)cc2)no1 (centres unmarked) | 7.93
COc1cc(/C(C)=N\NC(N)=S)cc(OC)c1OC | 6.79
CCOc1cc2[nH]c(=O)n(CCCCCC(=O)NCc3ccco3)c(=O)c2cc1OCC | 6.61
CN1CC=C2C(C#N)=C(N)C(C#N)(C#N)C(c3cccc(Cl)c3Cl)C2C1 (centres unmarked) | 5.52
Cc1cc(NC(=O)CCC(=O)N(c2ccccc2)C2(C(=O)NC3CCCCC3)CCCC2)no1 | 10.1
COc1ccc(-c2oc3c4c(cc(OC)c3c(=O)c2CC=C(C)C)OC(C)(C)C=C4)c(OC)c1 | 11.9
